The IC50 comes from the fitted curve, where viability falls to half of the control; a fit beyond the top or the lowest dose is shown as a bound at that dose. AUC sums up the same curve from the lowest dose to the 256-fold higher top dose; it is 1 without any effect and falls as sensitivity rises. The top dose, if marked as inferred, comes from the curve model; the source does not state it.
Columns and labels:
Assay in all cases: Viability of human cancer cell lines after 72 h of drug (GDSC screen)
[1] = compound: CCc1cc2c(cc1N1CCC(N3CCOCC3)CC1)C(C)(C)c1[nH]c3cc(C#N)ccc3c1C2=O [CH5424802]; conditions: top dose 5.12 µM; top dose inferred
Protocol: (§1)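 Human cancer cell lines in 384-well plates, medium with 10% serum, drug for 72 h over a 256-fold dose range (nine 2-fold or five 4-fold steps up to the top dose). Adherent lines were fixed and stained with the nucleic acid dye Syto60, suspension lines read with resazurin; signal relative to control wells, capped at 0 and 100%. One two-parameter sigmoid per drug and line, fitted in a mixed model over all curves with the slope shared within a line.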

[2] = compound: CC(C)(C)OC(=O)Nc1ccc(-c2cc(C(=O)NCCCCCCC(=O)NO)no2)cc1 [CAY10603]; conditions: top dose 20 µM; top dose inferred
Protocol: as §1

[3] = compound: N#Cc1c(C2CCNCC2)cc(-c2c(O)cccc2OCC2CC2)nc1N [ACHP (KIN001-260)]; conditions: top dose 20 µM; top dose inferred
Protocol: as §1

[4] = compound: CCOc1cc(N2CCC(O)CC2)ccc1Nc1ncc2c(n1)N(C)c1ccccc1C(=O)N2C [XMD8-92]; conditions: top dose 10 µM; top dose inferred
Protocol: as §1

Cell Line | AUC [1] | IC50 [1] | AUC [2] | IC50 [2] | AUC [3] | IC50 [3] | AUC [4] | IC50 [4]
RCM-1 (large intestine, adherent) | 0.982 | > 5.12 µM | 0.688 | 4.74 µM | 0.984 | > 20 µM | 0.894 | > 10 µM
RERF-LC-KJ (lung adenocarcinoma, adherent) | 0.986 | > 5.12 µM | 0.846 | 15.3 µM | 0.985 | > 20 µM | 0.802 | 5.11 µM
RERF-LC-MS (lung adenocarcinoma, adherent) | 0.985 | > 5.12 µM | 0.62 | 2.7 µM | 0.977 | > 20 µM | 0.947 | > 10 µM
RERF-LC-Sq1 (lung squamous cell carcinoma, adherent) | 0.96 | > 5.12 µM | 0.682 | 5.15 µM | 0.975 | > 20 µM | 0.934 | > 10 µM
RH-1 (rhabdomyosarcoma, adherent) | 0.984 | > 5.12 µM | 0.248 | 0.274 µM | 0.893 | 16.9 µM | 0.956 | > 10 µM
RKN (ovary, adherent) | 0.979 | > 5.12 µM | 0.594 | 2.29 µM | 0.962 | > 20 µM | 0.896 | > 10 µM
RKO (large intestine, adherent) | 0.87 | 4.17 µM | 0.49 | 1.18 µM | 0.933 | > 20 µM | 0.842 | 6.31 µM
RL95-2 (endometrium, adherent) | 0.987 | > 5.12 µM | 0.422 | 0.764 µM | 0.972 | > 20 µM | 0.821 | 5.71 µM
RL (B-cell lymphoma, suspension) | 0.989 | > 5.12 µM | 0.375 | 0.583 µM | 0.931 | > 20 µM | 0.799 | 4.34 µM
RO82-W-1 (thyroid, adherent) | 0.983 | > 5.12 µM | 0.593 | 2.42 µM | 0.981 | > 20 µM | 0.913 | > 10 µM
RPMI-7951 (melanoma, adherent) | 0.962 | > 5.12 µM | 0.397 | 0.66 µM | 0.954 | > 20 µM | 0.929 | > 10 µM
RPMI-8402 (T-cell lymphoblastic leukaemia, suspension) | 0.957 | > 5.12 µM | 0.172 | 0.161 µM | 0.832 | 10.1 µM | 0.876 | 7.25 µM
RPMI-8866 (chronic myeloid leukaemia, suspension) | 0.988 | > 5.12 µM | 0.226 | 0.215 µM | 0.797 | 8.68 µM | 0.874 | 8.52 µM
RS4-11 (leukaemia, suspension) | 0.978 | > 5.12 µM | 0.229 | 0.223 µM | 0.909 | > 20 µM | 0.844 | 6.28 µM
RT4 (bladder, adherent) | 0.978 | > 5.12 µM | 0.396 | 0.637 µM | 0.986 | > 20 µM | 0.959 | > 10 µM
RVH-421 (melanoma, adherent) | 0.893 | > 5.12 µM | 0.661 | 4.15 µM | 0.942 | > 20 µM | 0.891 | > 10 µM
RXF393 (kidney, adherent) | 0.903 | > 5.12 µM | 0.471 | 1.01 µM | 0.888 | > 20 µM | 0.961 | > 10 µM
SBC-1 (small cell lung carcinoma, suspension) | 0.989 | > 5.12 µM | 0.391 | 0.636 µM | 0.989 | > 20 µM | 0.784 | 4.07 µM
SBC-3 (small cell lung carcinoma, adherent) | 0.987 | > 5.12 µM | 0.203 | 0.184 µM | 0.893 | > 20 µM | 0.794 | 4.13 µM
SCC-4 (head and neck, adherent) | 0.979 | > 5.12 µM | 0.622 | 2.89 µM | 0.97 | > 20 µM | 0.945 | > 10 µM

Cell Line | AUC [1] | IC50 [1] | AUC [2] | IC50 [2] | AUC [3] | IC50 [3] | AUC [4] | IC50 [4]
SCC-15 (head and neck, adherent) | 0.975 | > 5.12 µM | 0.62 | 2.99 µM | 0.962 | > 20 µM | 0.873 | > 10 µM
SF268 (glioma, adherent) | 0.971 | > 5.12 µM | 0.395 | 0.629 µM | 0.969 | > 20 µM | 0.918 | > 10 µM
SF295 (glioma, adherent) | 0.984 | > 5.12 µM | 0.582 | 2.14 µM | 0.985 | > 20 µM | 0.924 | > 10 µM
SH-4 (melanoma, adherent) | 0.921 | > 5.12 µM | 0.826 | > 20 µM | 0.862 | > 20 µM | 0.921 | > 10 µM
SHP-77 (small cell lung carcinoma, semi-adherent) | 0.988 | > 5.12 µM | 0.561 | 1.8 µM | 0.986 | > 20 µM | 0.991 | > 10 µM
SIMA (neuroblastoma, adherent) | 0.972 | > 5.12 µM | 0.716 | 5.57 µM | 0.923 | > 20 µM | 0.921 | > 10 µM
SJRH30 (rhabdomyosarcoma, adherent) | 0.948 | > 5.12 µM | 0.535 | 1.57 µM | 0.986 | > 20 µM | 0.911 | > 10 µM
SJSA-1 (bone, adherent) | 0.979 | > 5.12 µM | 0.592 | 2.31 µM | 0.969 | > 20 µM | 0.865 | > 10 µM
SK-CO-1 (large intestine, adherent) | 0.989 | > 5.12 µM | 0.731 | 5.44 µM | 0.97 | > 20 µM | 0.943 | > 10 µM
SK-GT-4 (oesophagus, adherent) | 0.954 | > 5.12 µM | 0.421 | 0.721 µM | 0.977 | > 20 µM | 0.858 | > 10 µM
SK-LMS-1 (soft tissue, adherent) | 0.984 | > 5.12 µM | 0.208 | 0.182 µM | 0.953 | > 20 µM | 0.863 | 7.93 µM
SK-LU-1 (lung adenocarcinoma, adherent) | 0.747 | 2.03 µM | 0.672 | 4.33 µM | 0.961 | > 20 µM | 0.934 | > 10 µM
SK-MEL-1 (melanoma, suspension) | 0.993 | > 5.12 µM | 0.979 | > 20 µM | 0.99 | > 20 µM | 0.976 | > 10 µM
SK-MEL-2 (melanoma, adherent) | 0.985 | > 5.12 µM | 0.696 | 4.55 µM | 0.987 | > 20 µM | 0.911 | > 10 µM
SK-MEL-3 (melanoma, adherent) | 0.975 | > 5.12 µM | 0.593 | 2.35 µM | 0.879 | > 20 µM | 0.937 | > 10 µM
SK-MEL-5 (melanoma, adherent) | 0.983 | > 5.12 µM | 0.954 | > 20 µM | 0.982 | > 20 µM | 0.893 | > 10 µM
SK-MEL-28 (melanoma, adherent) | 0.988 | > 5.12 µM | 0.726 | 5.39 µM | 0.971 | > 20 µM | 0.904 | > 10 µM
SK-MEL-30 (melanoma, adherent) | 0.982 | > 5.12 µM | 0.655 | 3.46 µM | 0.924 | > 20 µM | 0.852 | 8.44 µM
SK-MES-1 (lung squamous cell carcinoma, adherent) | 0.709 | 1.32 µM | 0.517 | 1.39 µM | 0.982 | > 20 µM | 0.941 | > 10 µM
SK-MG-1 (glioma, adherent) | 0.964 | > 5.12 µM | 0.522 | 1.44 µM | 0.88 | > 20 µM | 0.881 | > 10 µM

Cell Line | AUC [1] | IC50 [1] | AUC [2] | IC50 [2] | AUC [3] | IC50 [3] | AUC [4] | IC50 [4]
SK-MM-2 (myeloma, suspension) | 0.967 | > 5.12 µM | 0.53 | 1.51 µM | 0.912 | > 20 µM | 0.87 | > 10 µM
SK-N-DZ (neuroblastoma, adherent) | 0.988 | > 5.12 µM | 0.611 | 2.51 µM | 0.988 | > 20 µM | 0.869 | 9.04 µM
SK-PN-DW (Ewing sarcoma, adherent) | 0.98 | > 5.12 µM | 0.508 | 1.32 µM | 0.861 | 18 µM | 0.967 | > 10 µM
SKN (uterus, adherent) | 0.867 | > 5.12 µM | 0.604 | 2.57 µM | 0.952 | > 20 µM | 0.89 | > 10 µM
SLVL (B-cell lymphoma, suspension) | 0.982 | > 5.12 µM | 0.24 | 0.209 µM | 0.822 | 12.6 µM | 0.962 | > 10 µM
SNB75 (glioma, adherent) | 0.972 | > 5.12 µM | 0.648 | 3.89 µM | 0.976 | > 20 µM | 0.834 | > 10 µM
SNG-M (endometrium, adherent) | 0.959 | > 5.12 µM | 0.936 | > 20 µM | 0.929 | > 20 µM | 0.734 | 2.85 µM
SNU-81 (large intestine, adherent) | 0.976 | > 5.12 µM | 0.982 | > 20 µM | 0.982 | > 20 µM | 0.951 | > 10 µM
SNU-387 (liver, adherent) | 0.983 | > 5.12 µM | 0.343 | 0.429 µM | 0.782 | 9.63 µM | 0.863 | > 10 µM
SNU-407 (large intestine, adherent) | 0.969 | > 5.12 µM | 0.638 | 3.21 µM | 0.961 | > 20 µM | 0.87 | > 10 µM
SNU-C1 (large intestine, suspension) | 0.979 | > 5.12 µM | 0.707 | 6.4 µM | 0.974 | > 20 µM | 0.905 | > 10 µM
SNU-C2B (large intestine, adherent) | 0.901 | > 5.12 µM | 0.564 | 1.97 µM | 0.957 | > 20 µM | 0.874 | > 10 µM
SNU-C5 (large intestine, adherent) | 0.984 | > 5.12 µM | 0.614 | 2.67 µM | 0.984 | > 20 µM | 0.912 | > 10 µM
SU8686 (pancreas, adherent) | 0.979 | > 5.12 µM | 0.725 | 5.97 µM | 0.974 | > 20 µM | 0.851 | 9.16 µM
SU-DHL-8 (B-cell lymphoma, suspension) | 0.96 | > 5.12 µM | 0.138 | 0.102 µM | 0.874 | 17.3 µM | 0.878 | 8.98 µM
SU-DHL-10 (B-cell lymphoma, suspension) | 0.997 | > 5.12 µM | 0.011 | < 0.0781 µM | 0.918 | 14.1 µM | 0.872 | 5.15 µM
SW48 (large intestine, adherent) | 0.971 | > 5.12 µM | 0.589 | 2.18 µM | 0.962 | > 20 µM | 0.868 | 9.09 µM
SW684 (fibrosarcoma, adherent) | 0.981 | > 5.12 µM | 0.967 | > 20 µM | 0.983 | > 20 µM | 0.928 | > 10 µM
SW872 (soft tissue, adherent) | 0.989 | > 5.12 µM | 0.496 | 1.22 µM | 0.981 | > 20 µM | 0.819 | 5 µM
SW948 (large intestine, adherent) | 0.975 | > 5.12 µM | 0.611 | 2.91 µM | 0.953 | > 20 µM | 0.98 | > 10 µM

From the supplement of paper PMC4967469
